Experimental data published in PubChem BioAssay AID1768 (National Center for Advancing Translational Sciences (NCATS), 2009).
Several values for one entry are separate records, joined by “and”; a condition that tells them apart may be missing. Equal entries are not always repeated. Screen size: about 270,000 compounds; about 620 (0.23%) were called active. This list was built around the results that the source calls inconclusive (neither active nor inactive); the mix of calls is not that of the screen. Calls come from the whole dose curve; as a rule, active = well fitted inhibition curve with a large enough effect in the polarisation, with a control signal flat (not every such curve was filed as active); inconclusive = small, poorly fitted or top-dose-only effect, or effect the other way, or a change in a side signal; inactive = no such curve, though single readings can be large or run the other way; the % refers to the polarisation. Potencies of inconclusive entries are doubtful fits and often do not repeat. A note “side channel” means that the fit belongs to a control or component signal, not to the main read-out.

What follows are compounds tested against Menin (Homo sapiens) (UniProt O00255) (assay: qHTS Assay for Inhibitors Targeting the Menin-MLL Interaction in MLL Related Leukemias: Competition With Texas Red Labeled MLL-derived Mutant Peptide). Conditions: fluorescence polarization; series mostly up to 61.6 µM.
Chain of UniProt O00255 (O00255 whole entry, looked up): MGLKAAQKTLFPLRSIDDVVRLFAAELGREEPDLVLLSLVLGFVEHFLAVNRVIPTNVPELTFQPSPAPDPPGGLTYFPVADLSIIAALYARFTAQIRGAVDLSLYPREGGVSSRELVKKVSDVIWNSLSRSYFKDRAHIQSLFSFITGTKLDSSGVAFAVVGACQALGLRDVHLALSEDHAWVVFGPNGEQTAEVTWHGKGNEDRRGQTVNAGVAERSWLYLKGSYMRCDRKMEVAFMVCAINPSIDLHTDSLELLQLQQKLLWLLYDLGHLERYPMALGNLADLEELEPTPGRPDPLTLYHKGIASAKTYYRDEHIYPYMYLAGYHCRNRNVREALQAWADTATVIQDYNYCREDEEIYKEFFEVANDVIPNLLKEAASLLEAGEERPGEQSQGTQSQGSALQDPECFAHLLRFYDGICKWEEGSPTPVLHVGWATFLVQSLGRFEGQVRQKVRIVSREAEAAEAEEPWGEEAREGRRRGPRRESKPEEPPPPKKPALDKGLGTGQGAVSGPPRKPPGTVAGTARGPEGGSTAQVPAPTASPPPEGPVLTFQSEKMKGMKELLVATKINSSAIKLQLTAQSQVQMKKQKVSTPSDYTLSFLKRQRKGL
Potency is the fitted concentration of half-maximal effect; tags give direction and shape of the fitted curve or compound fluorescence and quenching.

Potency, inconclusive:
CCCC(C)C(=O)Nc1nc(C)c(-c2csc(Nc3cc(OC)ccc3OC)n2)s1 (stereo not drawn) 7.08 µM [quencher, side channel, partial curve]
COc1cccc(OC)c1C(=O)NC(=S)Nc1ccc(S(=O)(=O)Nc2nccs2)cc1 11.2 µM [quencher, side channel, partial curve]
Cc1cccc(C(=O)OCC(=O)c2ccc3c(c2)OCO3)c1O 22.4 µM [fluorescent, side channel, single point]
Cc1cc(C)nc(/N=C(\N)Nc2ccc3c(c2)OCCO3)n1 20 µM [inhibitor, partial curve]
CC(C)CC(=O)Nc1c(C(=O)N2CCN(Cc3ccccc3)CC2)oc2ccccc12 12.6 µM [inhibitor, partial curve]
CCCCOC(=O)C(C#N)c1nc2ccccc2nc1N1CCOCC1 (stereo not drawn) 7.94 µM [fluorescent, side channel, full curve]
CC(C)c1ccc(-n2c(-c3ccccc3)c[n+]3c2CCc2ccccc2-3)cc1 2.51 µM [fluorescent, side channel, full curve, poor fit]
CC(=O)Nc1cccc(-c2nc3ccc(NC(C)=O)cc3s2)c1 10 µM [quencher, side channel, partial curve]
Cc1ccc(NC(=O)CC2S/C(=N/N=C/c3ccco3)NC2=O)cc1Cl (stereo not drawn) 14.1 µM [inhibitor, partial curve]
COc1ccc(Br)cc1CN(C)CC(=O)NCCc1ccc(S(N)(=O)=O)cc1 5.62 µM [inhibitor, full curve, poor fit]
O=C(Nc1cccc(F)c1)c1cc(S(=O)(=O)N2CCOCC2)cs1 14.1 µM [quencher, side channel, partial curve]
CC1CCCCN1C(=O)CSc1nnc(-c2c[nH]c3ccccc23)o1 (stereo not drawn) 39.8 µM [quencher, side channel, single point]
Cc1nn(-c2ccccc2)c2c1C(c1ccc([N+](=O)[O-])cc1)C(C#N)=C(N)O2 (stereo not drawn) 20 µM [quencher, side channel, partial curve]
C/C=C/c1ccc(OCC(O)CN2CCCCCCC2)c(OC)c1 (stereo not drawn) 22.4 µM [inhibitor, single point]
CCCCCCN1C2=NCCN2c2ccccc21 25.1 µM [inhibitor, single point]
CC(C)(C)[C@@H]1C=C(C(=O)N2CCN(Cc3ccc4c(c3)OCO4)CC2)O[C@H](OCc2ccc(CO)cc2)C1 1.58 µM [fluorescent, side channel, full curve]
COC(=O)c1c(NC(=O)COC(=O)c2ccc(O)cc2)sc2c1CCCCC2 10 µM [quencher, side channel, full curve, poor fit]
O=C(/C=C/c1ccc([N+](=O)[O-])cc1)NCCN1C(=O)S/C(=C\c2ccc(F)cc2)C1=O 31.6 µM [quencher, side channel, partial curve]
Cn1c(SCCOc2cccc(Cl)c2)nnc1-c1ccncc1 3.16 µM [inhibitor, partial curve]
COc1ccc(C2=NS(=O)(=O)N(C)C(C(=O)Nc3ccc4c(c3)OCO4)=C2)cc1 31.6 µM [quencher, side channel, single point]
COc1cc(/C=C2/SC(=S)N(c3ccccc3)C2=O)ccc1Oc1nc(N2CCOCC2)nc(N2CCOCC2)n1 39.8 µM [fluorescent, side channel, single point]
O=C(O)c1cc(-c2ccc(Cl)s2)nc2ccccc12 31.6 µM [quencher, side channel, single point]
CC(C)C[C@H](NC(=O)c1nc[nH]c1C(=O)NC1CCN(C(=O)OC(C)(C)C)CC1)C(=O)OC(C)(C)C 2 µM [fluorescent, side channel, full curve]
COC(=O)c1ccccc1NCC(=O)c1ccc(OC)cc1 39.8 µM [inhibitor, single point]
O=c1[nH]c2ccccc2n1CCCN1CCN(C(c2ccccc2)c2ccccc2)CC1 10 µM [fluorescent, side channel, partial curve] and 3.16 µM [fluorescent, side channel, partial curve]
Cc1ccc(CNS(=O)(=O)NCc2ccc(Cl)cc2)cc1 11.2 µM [inhibitor, partial curve]
O=C(COC(=O)c1ccc2c(c1)C(=O)N(Cc1ccncc1)C2=O)Nc1ccccc1[N+](=O)[O-] 20 µM [quencher, side channel, single point]
CC1CC(C)CN(S(=O)(=O)c2ccc(C(=O)Nc3nnc(C4CC4)o3)cc2)C1 (stereo not drawn) 11.2 µM [quencher, side channel, partial curve]
CCn1c2ccccc2c2cc(NC(=O)c3cccc(OC)c3)ccc21 7.08 µM [quencher, side channel, partial curve]
COc1ccc(CNC(=O)N2CCN(S(=O)(=O)c3ccc(C)cc3C)CC2)cc1 31.6 µM [inhibitor, partial curve]
COc1ccc(CNC(=O)c2cc(-c3cccs3)on2)cc1 1.58 µM [inhibitor, partial curve, poor fit]
O=S(=O)(Nc1cccc(Cl)c1)c1ccc2oc(=S)[nH]c2c1 39.8 µM [quencher, side channel, single point]
CCC(C)Sc1nc(O)c(Cc2ccccc2)c(=O)[nH]1 (stereo not drawn) 39.8 µM [inhibitor, single point]
CCOC(=O)N1CCC(NC(=O)CS(=O)Cc2nc(-c3ccc(OC)c(OC)c3)oc2C)CC1 (stereo not drawn) 39.8 µM [inhibitor, single point]
O=C(Nc1ccc(N2CCOCC2)c(Cl)c1)c1ccc(S(=O)(=O)N2CCOCC2)cc1 25.1 µM [quencher, side channel, partial curve]
COc1ccccc1NC(=S)N/N=C/c1ccc(O)cc1 25.1 µM [quencher, side channel, partial curve]
Cn1c(N)c(-c2ccccc2)c2ccc([N+](=O)[O-])cc2c1=O 15.8 µM [quencher, side channel, partial curve]
Cc1cc([N+](=O)[O-])ccc1NC(=O)/C=C/c1cccs1 17.8 µM [quencher, side channel, partial curve]
O=C(CNc1ccc(Br)cc1)c1ccccc1 15.8 µM [inhibitor, single point]
COc1ccc(C(=O)CSc2cc(C)[nH]c(=O)n2)cc1 15.8 µM [quencher, side channel, partial curve]
COc1cccc(Nc2nc(-c3sc(NC(=O)CC(C)C)nc3C)cs2)c1 14.1 µM [quencher, side channel, partial curve]
O=C(N/N=C/c1ccccc1)C(=O)N/N=C/c1ccccc1 28.2 µM [fluorescent, side channel, partial curve]
Cn1cccc1C(=O)Nc1nc(-c2ccccn2)cs1 31.6 µM [quencher, partial curve]
Cc1ccc(NC(=S)N(Cc2ccccc2)Cc2cccs2)c(C)c1 39.8 µM [inhibitor, single point]
CSc1ccccc1NC(=O)CN(C)Cc1cccc(Cl)c1 10 µM [fluorescent, side channel, partial curve]
Clc1ccc(-c2nc3ccccc3n2OCc2ccccc2)cc1 14.1 µM [inhibitor, partial curve]
O=C(Nc1ccc([N+](=O)[O-])cc1)C(Cc1ccccc1)N1C(=O)c2cccc3cccc(c23)C1=O (stereo not drawn) 2.24 µM [quencher, side channel, partial curve]
Cc1ccc(NS(=O)(=O)c2cccc3cccnc23)cc1Cl 39.8 µM [inhibitor, single point]
CC1=NN(c2ccc(Cl)cc2)C(=O)C1 39.8 µM [quencher, side channel, single point]

Potency, inactive:
Cc1nonc1NC(=O)CSc1nc2c(C)cccc2cc1C#N
Cc1nn(-c2ccccc2)c(C)c1/C=N/NC(=O)c1cccs1
O=C(c1ccc2nc3ccc(Cl)cc3c(=O)n2c1)N1CCOCC1
CC(C)CNC(=S)NC(=O)c1ccc(F)cc1
CCN(CC)S(=O)(=O)c1ccc(-c2nnc(SCC(=O)Nc3nnc(C)s3)n2CC)cc1
O=c1[nH]c2cc3c(cc2cc1C(c1nnnn1CC1CCCO1)N1CCCC1)OCO3 (stereo not drawn)
Cn1c(=N)c(S(=O)(=O)c2ccccc2)cc2c(=O)n3ccccc3nc21
CCOC(=O)N1CCN(S(=O)(=O)c2ccc(OCC)c(C)c2)CC1
O=C(O)CN1C(=O)C2C3CC(C2C1=O)C1C(c2ccccc2)c2sc(=O)[nH]c2SC31 (stereo not drawn)
